Reference: PubChem BioAssay (NCATS)
This list was built around the results that the source calls inconclusive (neither active nor inactive); the mix of calls is not that of the screen. For some assays here: A potency beside an inconclusive call is a rough fit, not a confirmed value. Activity calls are given as the source filed them. Calls come from the whole dose curve; as a rule, active = well fitted curve in the direction sought with a large enough effect; inconclusive = small, poorly fitted or top-dose-only effect, or another doubt; inactive = no such curve, though single readings can be large; an effect the other way counts as inactive or inconclusive.

Columns and labels:
[1] = qHTS of pediatric cancer cell lines to identify multiple opportunities for drug repurposing: Primary screen for DAOY cells (AID 1347090); conditions: DAOY medulloblastoma viability, CellTiter-Glo luminescence, 48 h; activity change, negative = cytotoxic: at 46 µM (top of the series); note: nearly all actives have a fitted effect of over 55% in size;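 for activity change, negative = cytotoxic: plate controls were DMSO for no effect and bortezomib for full effect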
In short: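 Viability measured as metabolically active cells via CellTiter-Glo luminescence following 48 hours of compound exposure, 11-point dilutions in confirmatory testing. 500-1,000 cells/well plated 5 hours before dosing; controls were DMSO and 2.3 µM bortezomib.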

[2] = qHTS of pediatric cancer cell lines to identify multiple opportunities for drug repurposing: Primary screen for A673 cells (AID 1347092); conditions: A673 Ewing sarcoma viability, CellTiter-Glo ATP luminescence, 48 h; activity change, negative = cytotoxic: at 46 µM (top of the series); note: nearly all actives have a fitted effect of over 45% in size; for activity change, negative = cytotoxic: % is set by controls: 0 for no effect and ±100 for the full control effect
In short: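 A673 cells (500-1,000 cells/well in growth media) were pre-incubated 5 h at 37 degrees C, then exposed to compounds for 48 h. Viability was read as CellTiter-Glo luminescence; concentration-response curves came directly from the primary screen.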

[3] = qHTS of pediatric cancer cell lines to identify multiple opportunities for drug repurposing: Primary screen for NB1643 cells (AID 1347099); note: nearly all actives have a fitted effect of over 50% in size
In short: (§1)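 Cells plated at 500-1,000/well in growth medium, compounds added after 5 h. MIPE tested at 11 points (from 0.78 nM), NPC at 8 points (from 0.59 nM). CellTiter-Glo luminescence after 48 h; concentration-response curves from primary screen.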

[4] = qHTS of pediatric cancer cell lines to identify multiple opportunities for drug repurposing: Primary screen for BT-12 cells (AID 1347101); note: nearly all actives have a fitted effect of over 25% in size;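 for activity change, negative = cytotoxic: plate controls were DMSO for no effect and bortezomib positive control for full effect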
In short: (§2)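 Cells (500-1,000/well) rested 5 h, then received compounds for 48 h; metabolically active cells were measured by CellTiter-Glo luminescence. Final concentrations spanned up to 46 µM (MIPE, 11-point) or 0.59 nM-46 µM (NPC, 8-point) in primary screens, 11-point in follow-ups.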

[5] = qHTS of pediatric cancer cell lines to identify multiple opportunities for drug repurposing: Primary screen for MG 63 (6-TG R) cells (AID 1347105); conditions: MG 63 (6-TG R) viability, CellTiter-Glo, 48 h; activity change, negative = cytotoxic: at 46 µM (top of the series); note: nearly all actives have a fitted effect of over 50% in size; for activity change, negative = cytotoxic: % is set by controls: 0 for no effect and ±100 for the full control effect
In short: as §1

[6] = qHTS of pediatric cancer cell lines to identify multiple opportunities for drug repurposing: Primary screen for Rh41 cells (AID 1347108); note: nearly all actives have a fitted effect of over 70% in size;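 for activity change, negative = cytotoxic: luminescence drop marks cytotoxic hits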
In short: as §1

[7] = qHTS of pediatric cancer cell lines to identify multiple opportunities for drug repurposing: Primary screen for NB-EBc1 cells (AID 1347095)
In short: as §1

[8] = qHTS of pediatric cancer cell lines to identify multiple opportunities for drug repurposing: Primary screen for Saos-2 cells (AID 1347097); note: nearly all actives have a fitted effect of over 40% in size; for activity change, negative = cytotoxic: % is set by controls: 0 for no effect and ±100 for the full control effect
In short: as §1

[9] = qHTS of pediatric cancer cell lines to identify multiple opportunities for drug repurposing: Primary screen for OHS-50 cells (AID 1347103); note: nearly all actives have a fitted effect of over 40% in size;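 for activity change, negative = cytotoxic: plate controls were DMSO neutral control for no effect and bortezomib positive control for full effect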
In short: as §2

[10] = qHTS of pediatric cancer cell lines to identify multiple opportunities for drug repurposing: Primary screen for RD cells (AID 1347104); note: nearly all actives have a fitted effect of over 55% in size
In short: as §1

[11] = qHTS of pediatric cancer cell lines to identify multiple opportunities for drug repurposing: Primary screen for Rh30 cells (AID 1347107); note: nearly all actives have a fitted effect of over 75% in size; for activity change, negative = cytotoxic: % is set by controls: 0 for no effect and ±100 for the full control effect
In short: (§3)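 Viability after 48 h compound treatment at 37C, 500-1,000 cells/well, read as ATP luminescence with CellTiter-Glo. Primary screens used 11-point (MIPE, 0.78 nM-46 µM) or 8-point (NPC, 0.59 nM-46 µM) final concentrations; follow-up screens used 11-point dilutions.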

[12] = qHTS of pediatric cancer cell lines to identify multiple opportunities for drug repurposing: Primary screen for SK-N-MC cells (AID 1347093); conditions: SK-N-MC viability, CellTiter-Glo luminescence, 48 h; activity change, negative = cytotoxic: at 46 µM (top of the series)
In short: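 Metabolically active cells were quantified by ATP-dependent luminescence (CellTiter-Glo, 15 min at room temperature) following 48 h treatment. Cells had been plated at 500-1,000 per well and settled for 5 h beforehand.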

[13] = qHTS of pediatric cancer cell lines to identify multiple opportunities for drug repurposing: Primary screen for BT-37 cells (AID 1347094)
In short: as §1

[14] = qHTS of pediatric cancer cell lines to identify multiple opportunities for drug repurposing: Primary screen for Rh18 cells (AID 1347102); note: nearly all actives have a fitted effect of over 65% in size
In short: as §3

[15] = qHTS of pediatric cancer cell lines to identify multiple opportunities for drug repurposing: Primary screen for U-2 OS cells (AID 1347096); note: nearly all actives have a fitted effect of over 50% in size
In short: as §3

[16] = qHTS of pediatric cancer cell lines to identify multiple opportunities for drug repurposing: Primary screen for SK-N-SH cells (AID 1347098); note: nearly all actives have a fitted effect of over 65% in size
In short: as §2

[17] = qHTS of pediatric cancer cell lines to identify multiple opportunities for drug repurposing: Primary screen for control Hh wild type fibroblast cells (AID 1347106); note: nearly all actives have a fitted effect of over 55% in size
In short: as §3

[18] = qHTS of pediatric cancer cell lines to identify multiple opportunities for drug repurposing: Primary screen for LAN-5 cells (AID 1347100); conditions: LAN-5 neuroblastoma viability, CellTiter-Glo luminescence, 48 h; activity change, negative = cytotoxic: at 46 µM (top of the series);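 for activity change, negative = cytotoxic: plate controls were DMSO neutral control for no effect and bortezomib positive control for full effect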
In short: as §3

[19] = qHTS of pediatric cancer cell lines to identify multiple opportunities for drug repurposing: Confirmatory screen for NB1643 cells (AID 1347109); conditions: NB1643 neuroblastoma cell viability; activity change, negative = cytotoxic: at 45.9 µM (top of the series); note: nearly all actives have a fitted effect of over 45% in size;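 for activity change, negative = cytotoxic: plate controls were DMSO for no effect and bortezomib for full effect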
In short: as §3
Potency is the fitted concentration of half-maximal effect; tags give direction and shape of the fitted curve.

CC(C)(C)C(=O)Oc1ccc(S(=O)(=O)Nc2ccccc2C(=O)NCC(=O)O)cc1
inactive: Potency [1] | Potency [4] | Potency [6]
inconclusive: Potency [2] 37.2 µM [cytotoxic, single point] | Potency [3] 29.6 µM [cytotoxic, single point] | activity change, negative = cytotoxic [5] -31.1% [cytotoxic]

C#CCN(C)CC1=Cc2ccccc2Oc2ccccc21
inconclusive: Potency [1] 23.5 µM [cytotoxic, partial curve, poor fit] | Potency [2] 11.8 µM [cytotoxic, partial curve, poor fit] | Potency [7] 11.8 µM [cytotoxic, partial curve, poor fit] | Potency [8] 0.418 µM [cytotoxic, full curve, poor fit] | Potency [3] 0.743 µM [cytotoxic, full curve] | Potency [9] 27.3 µM [cytotoxic, partial curve] | Potency [10] 11.8 µM [cytotoxic, partial curve, poor fit] | activity change, negative = cytotoxic [5] -42.8% [cytotoxic] | Potency [11] 16.6 µM [cytotoxic, partial curve, poor fit] | Potency [6] 14.8 µM [cytotoxic, partial curve]

CCCCCN(CCC12CC3CC(CC(C3)C1)C2)C(=O)NCCCc1ccncc1
active: Potency [12] 16.6 µM | Potency [13] 24.3 µM
inactive: Potency [11]
inconclusive: Potency [1] 14.8 µM [cytotoxic, partial curve] | Potency [3] 18.7 µM [cytotoxic, partial curve] | Potency [4] 24.3 µM [cytotoxic, partial curve] | Potency [14] 14.8 µM [cytotoxic, partial curve] | Potency [10] 18.7 µM [cytotoxic, partial curve] | Potency [5] 11.8 µM [cytotoxic, partial curve] | Potency [6] 13.2 µM [cytotoxic, partial curve]

NS(=O)(=O)c1cc2c(cc1Cl)NC=NS2(=O)=O
inactive: Potency [1] | Potency [2] | Potency [8]

COc1ccc2c(c1)CC[C@@H](CN(C)CC(=O)O)[C@H]2c1ccccc1
active: Potency [1] 2.96 µM | Potency [12] 1.18 µM
inconclusive: Potency [15] 14.8 µM [cytotoxic, partial curve] | Potency [16] 3.04 µM [cytotoxic, full curve] | Potency [3] 2.35 µM [cytotoxic, full curve] | Potency [4] 4.85 µM [cytotoxic, full curve] | Potency [14] 2.35 µM [cytotoxic, full curve] | Potency [10] 5.9 µM [cytotoxic, full curve]

NCCCCNCCCN
inconclusive: Potency [2] 14.8 µM [cytotoxic, partial curve] | Potency [8] 0.743 µM [cytotoxic, partial curve, poor fit] | Potency [17] 3.72 µM [cytotoxic, full curve]
inactive: Potency [1]
active: Potency [16] 7.64 µM | Potency [3] 4.18 µM | Potency [6] 23.5 µM

CC(C)(O)CCc1ccc(OCc2cc(-c3cccc(OC(F)F)c3)c3ncccc3c2)cc1
inactive: Potency [1] | Potency [4] | Potency [5]
inconclusive: Potency [12] 18.7 µM [cytotoxic, partial curve, poor fit] | Potency [16] 21.5 µM [cytotoxic, partial curve] | Potency [9] 43.2 µM [cytotoxic, partial curve, poor fit]

O=C(c1ccc(C=Cc2n[nH]c3ccccc23)cc1)N1CCNCC1
inconclusive: Potency [2] 23.5 µM [cytotoxic, partial curve] | Potency [8] 5.9 µM [cytotoxic, partial curve] | Potency [16] 19.2 µM [cytotoxic, partial curve] | Potency [3] 0.209 µM [cytotoxic, full curve] | Potency [4] 15.3 µM [cytotoxic, partial curve] | Potency [10] 20.9 µM [cytotoxic, partial curve] | Potency [5] 23.5 µM [cytotoxic, single point] | Potency [11] 10.5 µM [cytotoxic, partial curve] | Potency [6] 14.8 µM [cytotoxic, partial curve]
inactive: Potency [1]

COc1cc2c(cc1OC)[C@@H]1Cc3ccc(OC)c(OC)c3CN1CC2
inactive: Potency [14] | Potency [9]
active: Potency [18] 10.5 µM
inconclusive: Potency [1] 23.5 µM [cytotoxic, partial curve, poor fit] | Potency [2] 14.8 µM [cytotoxic, partial curve] | Potency [7] 33.2 µM [cytotoxic, single point] | Potency [16] 27.1 µM [cytotoxic, single point] | Potency [3] 18.7 µM [cytotoxic, partial curve] | Potency [4] 19.3 µM [cytotoxic, partial curve] | Potency [6] 7.43 µM [cytotoxic, partial curve] | Potency [19] 0.737 µM [cytotoxic, full curve, poor fit]

OC[C@H]1O[C@@H](OCCc2ccc(O)cc2)[C@H](O)[C@@H](O)[C@H]1O
inactive: Potency [9]
inconclusive: Potency [1] 23.5 µM [cytotoxic, partial curve, poor fit] | Potency [2] 23.5 µM [cytotoxic, single point] | Potency [7] 0.372 µM [cytotoxic, full curve, poor fit] | Potency [8] 13.2 µM [cytotoxic, partial curve] | Potency [16] 30.4 µM [cytotoxic, single point] | Potency [10] 18.7 µM [cytotoxic, partial curve] | Potency [17] 18.7 µM [cytotoxic, partial curve, poor fit] | Potency [6] 8.33 µM [cytotoxic, partial curve, poor fit]

NC(=O)c1cnccn1
inactive: Potency [1] | Potency [8] | Potency [14] | Potency [11]
inconclusive: Potency [12] 33.2 µM [cytotoxic, single point] | Potency [16] 24.1 µM [cytotoxic, partial curve] | Potency [3] 26.4 µM [cytotoxic, partial curve, poor fit]

N#CC[C@H](C1CCCC1)n1cc(-c2ncnc3[nH]ccc23)cn1
active: Potency [2] 23.5 µM | Potency [18] 18.7 µM
inconclusive: Potency [1] 23.5 µM [cytotoxic, partial curve, poor fit] | Potency [14] 14.8 µM [cytotoxic, single point] | Potency [9] 34.3 µM [cytotoxic, partial curve] | Potency [10] 29.6 µM [cytotoxic, partial curve, poor fit] | Potency [5] 23.5 µM [cytotoxic, partial curve] | Potency [11] 18.7 µM [cytotoxic, partial curve] | Potency [6] 18.7 µM [cytotoxic, partial curve]

CN1c2ccccc2C(=O)N2CCc3c([nH]c4ccccc34)C21 (configuration not stated)
inactive: Potency [1] | Potency [18] | Potency [4]
inconclusive: Potency [2] 29.6 µM [cytotoxic, single point] | Potency [8] 18.7 µM [cytotoxic, partial curve] | Potency [16] 38.3 µM [cytotoxic, single point] | Potency [10] 33.2 µM [cytotoxic, single point]

CCc1nc(-c2cccc(C)c2)c(-c2ccnc(NC(=O)c3ccccc3)c2)s1
inconclusive: Potency [1] 18.7 µM [cytotoxic, partial curve] | Potency [15] 23.5 µM [cytotoxic, single point] | Potency [18] 16.6 µM [cytotoxic, partial curve] | Potency [4] 24.3 µM [cytotoxic, partial curve] | Potency [9] 21.7 µM [cytotoxic, partial curve] | Potency [10] 29.6 µM [cytotoxic, partial curve] | Potency [5] 29.6 µM [cytotoxic, single point] | Potency [11] 5.9 µM [cytotoxic, partial curve] | Potency [6] 5.9 µM [cytotoxic, partial curve, poor fit]
active: Potency [12] 29.6 µM | Potency [7] 20.9 µM | Potency [8] 16.6 µM | Potency [3] 18.7 µM

CCCCC[C@H](O)C=C[C@H]1[C@H](O)CC(=O)[C@H]1CCCCCCC(=O)O
inactive: Potency [16] | Potency [9]
inconclusive: Potency [1] 11.8 µM [cytotoxic, partial curve, poor fit] | Potency [2] 23.5 µM [cytotoxic, partial curve] | Potency [15] 23.5 µM [cytotoxic, partial curve, poor fit] | Potency [3] 33.2 µM [cytotoxic, single point] | Potency [18] 20.9 µM [cytotoxic, single point] | Potency [10] 33.2 µM [cytotoxic, single point] | Potency [6] 11.8 µM [cytotoxic, partial curve, poor fit]

CCC(=O)N1CCN(c2ccc(-n3c(=O)ccc4cnc5ccc(-c6cnc7ccccc7c6)cc5c43)cc2C(F)(F)F)CC1
active: Potency [2] 0.0118 µM | Potency [6] 0.0743 µM
inconclusive: Potency [1] 0.0235 µM [cytotoxic, full curve, poor fit] | Potency [15] 0.0372 µM [cytotoxic, full curve] | Potency [8] 0.105 µM [cytotoxic, full curve] | Potency [16] 0.541 µM [cytotoxic, full curve] | Potency [3] 0.003 µM [cytotoxic, full curve, poor fit] | Potency [14] 0.0332 µM [cytotoxic, full curve] | Potency [10] 0.0187 µM [cytotoxic, full curve] | Potency [5] 0.0059 µM [cytotoxic, full curve, poor fit] | Potency [17] 0.296 µM [cytotoxic, full curve, poor fit]
inactive: Potency [19]
